Results taken from ChEMBL document CHEMBL4888484, “Replenishing the malaria drug discovery pipeline: Screening and hit evaluation of the MMV Hit Generation Library 1 (HGL1) against asexual blood stage Plasmodium falciparum ,using a nano luciferase reporter read-out” (2022).
Hit rate of the full screen: of about 150,000 compounds, about 540 (0.36%) showed an effect of 50% or more. The list shows a part of the results.

system: Plasmodium falciparum; assay: Primary screen in NF54 nanoGlo assay, in single point, at 2uM, 72h; a lower Z score goes with more inhibition; assay type: functional, Erythrocyte; details: timepoint 72 hour

| SMILES | % Inhibition | Z score |
| --- | --- | --- |
| O=C(NC1CCCCC1)N(C(=O)c1ccc2[nH]c3c(c2c1)CCCC3)C1CCCCC1 | 9% | -1 |
| CCc1cccc(NC(=O)c2c(C)oc3nc(C)nc(N4CCCC4)c23)c1 | -2% | 0.36 |
| Cc1cnc(C2CC2)n1C1CCN(C(=O)N(C)C)CC1 | -4% | 0.53 |
| O=C(NC[C@H]1COCc2nc3ccccc3n21)c1cnccn1 | 3% | -0.58 |
| Cn1cc(C(=O)N2CCO[C@H](c3ccccc3)C2)c2ccccc21 | -22% | 1.91 |
| CCc1ccc(NC(=O)c2scc(-c3cccc(F)c3)c2S(=O)(=O)N(C)c2ccccc2)cc1 | -10% | 1.8 |
| O=S(=O)(Cc1ccc(F)cc1)N1CCC[C@H]1c1ccccc1 | 7% | -1.16 |
| COC(=O)C(C)C(NC(=O)c1oc(C)nc1C)c1ccccc1 (stereo not given) | -4% | 0.37 |
| CN(C(=O)Nc1ccc(F)cc1F)c1nc2c(s1)CN(Cc1ccccc1)C2=O | 33% | -3.69 |
| COCCN1CC[C@H](CN(C)c2ncc(F)c(OC)n2)C1 | -6% | 1.15 |
| CC(C)(C)c1cn(C[C@H]2CCCN(C(=O)C(=O)c3ccco3)C2)nn1 | -1% | 0.1 |
| Cc1noc(C)c1C(=O)NCC1CCN(C(=O)N(C)C)CC1 | 6% | -0.7 |
| Cc1ccccc1[C@@H](O)C1CCN(C(=O)Cc2cncc(O)c2)CC1 | -14% | 1.4 |
| O=C(NCc1cc[nH]n1)NC1C2CCOC2C12CCCC2 (stereo not given) | -2% | 0.27 |
| O=C(NC1CCCCC1)N1C[C@@H](CO)C[C@@H](CN2CCOCC2)C1 | -13% | 1.24 |
| O=C(Nc1ccc(Cl)cc1)N1CCC(n2cnc3ccccc3c2=O)CC1 | 3% | -0.29 |
| COc1ccc(S(=O)(=O)N2CCc3nc(CNC(=O)C4CCC4)n(C)c3C2)cc1 | -8% | 0.94 |
| O=C1C[C@H](c2nc(C3CC3)no2)CN1Cc1ccccc1 | 0% | 0 |
| COC(=O)[C@H](NC(=O)Cc1ccn[nH]1)c1ccc(F)cc1F | -17% | 1.54 |
| CC(C)c1ccc(C(=O)O)cc1S(=O)(=O)N(C)CCF | 1% | -0.14 |
| CCCc1nnc(N[C@H]2CCN(C(C)C)C2=O)s1 | -10% | 1.63 |
| CC(C)(C)n1cc(CN2CCOc3cc(F)ccc32)nn1 | -14% | 1.67 |

| SMILES | % Inhibition | Z score |
| --- | --- | --- |
| O=C(c1nc(N2CCCCC2)ncc1Cl)N1CCN(c2ncccn2)CC1 | -8% | 1.07 |
| O=C([C@@H]1CCCO1)N(Cc1c(F)cccc1F)C1CC1 | -9% | 1.27 |
| C[C@H](NC(=O)CCc1cscn1)c1nc(-c2cccnc2)cs1 | 7% | -1.12 |
| O=C(Cc1ccc(-c2ccccc2)cc1)Nc1ccc2c(c1)OCO2 | -16% | 2.89 |
| Cc1ccc(-c2nccn2CCn2ccnc2)c(C)c1F | -3% | 0.35 |
| COc1ccc(C(=O)NCc2csc(C)n2)o1 | 3% | -0.41 |
| Cc1nc(C(C)(C)NCC(=O)Nc2ccccc2)sc1C | 7% | -0.63 |
| CCn1cc(-c2c(-c3ccccc3)ncn2CCc2nncn2CC)cn1 | 1% | -0.11 |
| NC(=O)C[C@H](NCc1cc2ccccc2c(=O)[nH]1)C1CCCCC1 | 4% | -0.45 |
| C[C@H]1CCCN(c2nc(-c3ccc(N4CCCC4=O)cc3)cs2)C1 | -4% | 0.39 |
| CC(C)(C)c1ccc([C@@H]2C3=C(O)c4ccccc4C3=Nc3ccccc3S2(=O)=O)cc1 | -16% | 1.41 |
| O=S(=O)(c1ccc(-c2csc(C3CC3)n2)cc1)N1CCCCC1 | -17% | 1.76 |
| C[C@@H](C(=O)NCc1ccc(-c2ccc3c(c2)CCO3)cc1)n1cccn1 | 5% | -0.94 |
| COc1cc(OC)nc(N2C[C@@H]3OC(=O)N(Cc4ccccn4)[C@@H]3C2)n1 | -15% | 1.75 |
| CN(C)C(=O)Nc1ccc(S(N)(=O)=O)cc1 | -12% | 1.96 |
| CC(C)CS(=O)(=O)NC(=O)[C@H]1CC[C@H](C(C)C)CC1 | 0% | 0.03 |
| Cc1ccc(C)c(CN2CCC(CNC(=O)[C@H](C(C)C)N3Cc4ccccc4C3=O)CC2)c1 | -10% | 1.24 |
| CC(C)c1ccc(CN2C(=O)NC3(CCCC3)C2=O)cc1 | 2% | -0.29 |
| Cc1nc2c(-c3ccncc3)nsc2c(=O)n1CC(=O)NCc1ccc(Cl)cc1 | -8% | 1.23 |
| Cc1cnc(CCNC(=O)c2ccco2)n1C1CC1 | -10% | 1.51 |
| Cc1[nH]c(=O)[nH]c1C(=O)N1Cc2sccc2CC1(C)C | 35% | -3.95 |
| CC1CCC(CN2CCCCC2C(C)O)CC1 (stereo not given) | 3% | -0.32 |

| SMILES | % Inhibition | Z score |
| --- | --- | --- |
| CC(C)[C@@H](NC(=O)Cc1cccc(F)c1)C(=O)OC(C)(C)C | -7% | 0.93 |
| CC(NC(=O)c1ccoc1)c1nc(C2CCCO2)no1 (stereo not given) | -1% | 0.11 |
| Cc1ccc(-n2nc(C(=O)NC3CCN(Cc4ccccc4)CC3)nc2-c2ccoc2)cc1 | 0% | -0.04 |
| CC(C)N1CCN(C(=O)C2CCCC2)CC1 | -2% | 0.2 |
| c1ccc2c(-c3nc([C@H]4CCOC4)no3)ccnc2c1 | -11% | 2.13 |
| Cc1cc2ncc3c(n2n1)CCN(C(=O)Cc1ccccc1Cl)C3 | -7% | 1.04 |
| Cc1cc([C@H](C)NS(C)(=O)=O)c(C)o1 | 7% | -0.87 |
| Cc1nc2ccccc2c2nc(=O)c(-c3ccc(F)cc3)nn12 | -3% | 0.4 |
| CC[C@@H](CO)N(Cc1cccnc1)Cc1cnn2cccnc12 | 1% | -0.13 |
| Cc1nc2[nH]cc(C(=O)N3CCC(Cc4noc(C)n4)CC3)c(=O)n2n1 | 12% | -1.55 |
| COc1ccc(CCN2C(=O)O[C@H]3CN(C4Cc5ccccc5C4)C[C@H]32)cc1 | 3% | -0.39 |
| CC(C)(C#N)Nc1ccc(Br)cc1 | -3% | 0.44 |
| CCn1ccnc1[C@H]1OCCC[C@@H]1NC(=O)OCCCF | 5% | -1.03 |
| c1ccc2c(c1)C[C@H](CN1CCOCC1)O2 | -7% | 1.36 |
| Cc1cc(C)n(CC(=O)Nc2n[nH]c(Cc3cccc(F)c3)n2)n1 | 27% | -3.08 |
| O=C(NC1CCCCCC1)[C@H]1CCCN(c2ccnc(-c3cccc(F)c3)n2)C1 | -1% | 0.25 |
| Cc1ccc(-c2nc([C@H]3CCCN(CC(N)=O)C3)n(CC(F)(F)F)n2)o1 | -4% | 0.76 |
| Nc1nccnc1C(=O)OCc1csc(-c2ccccc2)n1 | -8% | 1.02 |
| Cc1cc(CN(C)C(=O)[C@@H]2CC(C(C)C)=NO2)on1 | -13% | 1.39 |
| NC(=O)Cn1c(=O)n(CCCS(=O)(=O)C2CCCCC2)c(=O)c2ccccc21 | -1% | 0.21 |
| CCc1ccccc1N(C)S(=O)(=O)c1c(C)sc(C)c1-c1cc(C(F)(F)F)on1 | -6% | 1.04 |
| COCc1nc(C(=O)N[C@H]2CCc3nccn3C2)cs1 | -3% | 0.71 |

| SMILES | % Inhibition | Z score |
| --- | --- | --- |
| Cc1cccc(C(=O)N2CCC3(CC2)OC[C@@H](C(=O)NCc2ccncc2)N3C(=O)c2ccc(F)cc2)c1 | -15% | 1.5 |
| CC(=O)N(CCN1CCCCC1)[C@H]1CCCN(S(=O)(=O)C(C)C)C1 | -8% | 1.11 |
| O=C1NC(=O)[C@@]2(CCN(C(=O)NC3CCCCCCC3)C2)N1 | -9% | 1.73 |
| CN(CC(=O)NC1CCCCCC1)Cc1ncon1 | -6% | 1.07 |
| CCNS(=O)(=O)c1cc(C(=O)N2CCCC2)cs1 | -9% | 0.93 |
| O=C(NCCC1=CCCCC1)c1ccc2ccccc2n1 | -15% | 2.78 |
| CCOCc1nnc2n1CCN(C(=O)OC(C)(C)C)C2 | -1% | 0.19 |
| CC(C)(CC#N)CS(=O)(=O)N1CCC(F)(c2ccc(Cl)cc2)CC1 | -7% | 1.04 |
| CC(=O)c1cccc(NC(=O)CN(c2ccc(C)cc2)S(=O)(=O)c2cccc3nonc23)c1 | 4% | -0.57 |
| CC[C@@](CNC(=O)C(=O)Nc1ccon1)(OC)c1ccccc1 | 19% | -2.46 |
| CN(C)Cc1nnc([C@H]2C[C@@H](NC(=O)C3CCOCC3)C2)n1C | -1% | 0.12 |
| O=C(Nc1nnc(-c2cc3ccccc3o2)o1)C(c1ccccc1)c1ccccc1 | -10% | 1.12 |
| CCn1cncc1CN1CCC[C@H](CNC(=O)c2ccc(C)nc2)C1 | -1% | 0.15 |
| O=C(Cc1c(Cl)cccc1Cl)N1CC[C@H](Oc2ccccn2)C1 | -6% | 1.18 |
| COc1cc(-c2nc(CN3CCS(=O)(=O)CC3)c(C)o2)cc2c1OCO2 | -2% | 0.4 |
| Cc1ccccc1[C@@H](O)C1CCN(CCc2cscn2)CC1 | -6% | 1.09 |
| Cc1sc2c(C)cccc2c1S(=O)(=O)N1CCOC[C@H]1C(N)=O | -8% | 0.99 |
| CNS(=O)(=O)c1cc(C(N)=O)ccc1OC | -9% | 1.25 |
| CCN(Cc1cc(C)no1)Cc1c(C)nn(C)c1C | -11% | 1.46 |
